# Test results taken from PubChem BioAssay AID1458 (National Center for Advancing Translational Sciences (NCATS), 2008).
# In all, about 210,000 compounds went through this assay and about 5,900 (2.8%) were called active. The shares of active, inactive and inconclusive entries below differ from those in the screen. Calls follow the shape of the dose curve; as a rule, active = well fitted activation curve with a large enough effect; inconclusive = small, poorly fitted or top-dose-only effect; inactive = no such curve, though single readings can be large or run the other way. A potency beside an inconclusive call is a rough fit, not a confirmed value.
# Test: qHTS Assay for Enhancers of SMN2 Splice Variant Expression; also: nearly all actives have a fitted effect of over 55% in size; as to activity change, positive = activation: % of control where 0% means no effect
# Settings: HEK293 SMN2-luciferase splicing reporter, luminescence, 30-36 h; activity change, positive = activation: at 46.1 µM (top of the series)
# Method in brief: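 HEK293 cells carry an SMN2 […]–luciferase reporter in which exon 7 inclusion puts luciferase in frame. Cells were plated 10-12 h before compound addition, then incubated 30-36 h at 37C. ONE-Glo luminescence was read; sodium butyrate at 4.5 mM final served as control.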
# Potency is read from the fitted curve at half-maximal effect; tags tell the direction and shape of the fitted curve.
SMILES,Potency,"activity change, positive = activation"
S=C(NCc1cccs1)Nc1cccc2ccccc12,"inconclusive: 11.2 µM [activator, partial curve]",–
COc1cccc(C2CC(=O)Nc3cc(OC)c(OC)c(OC)c32)c1OC(C)C (stereo not given),active: 17.8 µM,–
COc1ccc(-c2cc(-c3ccccc3O)[nH]n2)cc1OC,"inconclusive: 25.1 µM [activator, single point]",–
O=C(N/N=C/c1ccc(O)cc1)c1csc2c1CCCC2,–,inactive: 29.7%
O=C(/C=C/c1cccs1)c1ccc(NC(=O)c2cccc(Br)c2)cc1,"inconclusive: 35.5 µM [activator, single point]",–
Cc1ccc2nc(NC(=O)C3CC(=O)N(Cc4ccco4)C3)sc2c1 (stereo not given),"inconclusive: 17.8 µM [activator, single point]",–
CCN(c1ccc(NC(=O)COC(=O)c2cccs2)cc1)C(C)C,"inconclusive: 22.4 µM [activator, single point]",–
CCN(C(=O)c1cc2c(=O)oc3ccccc3c2s1)c1ccc(C)c(C)c1,–,inactive: 7.16%
Cc1cc(Cl)ccc1NC(=S)Nc1ccccn1,"inconclusive: 22.4 µM [activator, single point]",–
O=C1NC2(C=Cc3c(ccc4ccccc34)O2)Oc2ccccc21 (stereo not given),–,inactive: -4.6%
CCn1c2ccccc2c2cc(NC(=O)c3cc(OC)cc(OC)c3)ccc21,"inconclusive: 0.891 µM [activator, single point]",–
CCCCNC1=C(Br)C(=O)CC(C)(C)C1,"inconclusive: 0.251 µM [activator, full curve, poor fit]",–
CCN(CC)CCNC(=O)Cn1nc(Cc2ccccc2)c2ccccc2c1=O,–,inactive: -2.1%
CC1Cc2ccccc2N1C(=O)COc1ccc2c(c1)OCO2 (stereo not given),"inconclusive: 14.1 µM [activator, partial curve]",–
COc1ccc(-n2nc(C(=O)Nc3ccc4c(c3)OCO4)c3ccccc3c2=O)c(OC)c1,"inconclusive: 0.794 µM [activator, full curve, poor fit]",–
O=C1CCCCN1CCc1c[nH]c2ccccc12,"inconclusive: 17.8 µM [activator, partial curve]",–
CC(C)c1ccc(NC(=S)N(C)CCc2ccccn2)cc1,"inconclusive: 12.6 µM [activator, single point]",–
Cc1ccc(SCC(=O)Nc2ccccc2C(=O)O)cc1,"inconclusive: 0.0316 µM [activator, full curve, poor fit]",–
O=C1c2ccccc2C(=O)N1CCSc1ccccc1,"inconclusive: 25.1 µM [activator, single point]",–
O=C(/C=C/c1ccccc1)/C=C/c1ccccc1,–,inactive: -89.7%
N#C/C(=C(/O)COc1ccccc1)c1nc2ccccc2s1,–,inactive: 1.62%
Nc1cc(-c2ccc(Cl)cc2)nn1S(=O)(=O)c1ccc(Cl)cc1,–,inactive: -26.4%
COc1ccc2c(c1)cc(C(=O)O)n2C,"inconclusive: 0.0178 µM [activator, full curve]",–
O=C(Nc1ncc(Cc2cccc(Cl)c2)s1)c1cccs1,–,inactive: 16.3%
Cc1ccc(CN(C(=O)c2sc3ccccc3c2Cl)C2CCS(=O)(=O)C2)cc1 (stereo not given),"inconclusive: 0.562 µM [activator, full curve, poor fit]",–

SMILES,Potency,"activity change, positive = activation"
CCOc1cc(C)c(Cl)cc1S(=O)(=O)n1cnc2ccccc21,"inconclusive: 7.94 µM [activator, partial curve, poor fit]",–
O=C(Nc1cc(C(F)(F)F)ccc1Cl)c1noc2c1CCCCC2,–,inactive: 12.4%
Clc1cc(Cl)c2nc(N3CCOCC3)sc2c1,"inconclusive: 14.1 µM [activator, single point]",–
CCC(=O)Nc1ccc(S(=O)(=O)Nc2cccc(C)c2)cc1OC,"inconclusive: 2.82 µM [activator, full curve]",–
O=C(CCCc1nc2ccccc2s1)Nc1ccc(N2CCOCC2)cc1,–,inactive: -1.76%
O=C(Cc1cccs1)N/N=C/C=C/c1ccccc1,"inconclusive: 11.2 µM [activator, partial curve]",–
O=C(CSc1nnc2ccccn12)Nc1ncc(Cl)cc1Cl,"inconclusive: 12.6 µM [activator, single point]",–
CN(C)c1ccc(/C=C/c2ccncc2)cc1,"inconclusive: 22.4 µM [activator, single point]",–
COC(=O)c1[nH]c2cc(C)ccc2c1NC(=O)CN1CCN(c2ccccc2OC)CC1,"inconclusive: 35.5 µM [activator, single point]",–
Cc1ccc(-c2cn3cc(C)ccc3n2)cc1,–,inactive: -85.6%
O=C(Cn1nnc2ccccc2c1=O)N1CCCc2ccccc21,"inconclusive: 12.6 µM [activator, single point]",–
C[C@H](NS(=O)(=O)c1ccc(Cl)cc1)C(=O)OCC(=O)NC(=O)Nc1ccc2c(c1)OCCO2,"inconclusive: 10 µM [activator, partial curve, poor fit]",–
COc1cccc(-c2ccnc3c(-c4ccccc4)c(C)nn23)c1,–,inconclusive: 38.8% [activator]
O=C(N/N=C1/CCS(=O)(=O)c2ccc(F)cc21)c1cccnc1,–,inactive: -10.6%
Cc1ccc2nc(-c3ccc(NC(=O)COC(=O)c4ccc(Br)o4)cc3)sc2c1,active: 0.501 µM,–
COC(=O)c1cn(NC(=O)c2ccc3c(c2)OCO3)c(=O)c2ccccc12,"inconclusive: 0.112 µM [activator, full curve]",–
CCN(CC)c1ccc(/C=N/N2CCN(Cc3ccccc3)CC2)c(O)c1,–,inactive: -6% [at 1.84 µM]
COc1ccc(CCNC(=S)Nc2ccccc2C)cc1,"inconclusive: 5.62 µM [activator, single point]",–
O=C(/C=C/c1cccs1)NCc1ccccc1,"inconclusive: 35.5 µM [activator, single point]",–
O=S(=O)(c1ccc(Cl)cc1)N1c2ccccc2Oc2nc3ccccc3nc21,"inconclusive: 35.5 µM [activator, single point]",–
O=C(/C=C/c1ccc([N+](=O)[O-])cc1)Nc1cccnc1,active: 12.6 µM,–
Cc1ccc(NC(=O)CN2c3ccccc3S(=O)(=O)c3ccccc32)cc1F,–,inactive: -8.12%
C=CC[n+]1c(-c2ccc(C)cc2)csc1Nc1ccc(NC(C)=O)cc1,–,inactive: -68%
COc1ccc(OC)c(-c2cnc(OC(C)(C)C)nc2OC(C)(C)C)c1,"inconclusive: 0.355 µM [activator, full curve, poor fit]",–
CCNCc1cc([N+](=O)[O-])ccc1OCC,–,inactive: 4.5%

SMILES,Potency,"activity change, positive = activation"
Cc1occc1C(=O)NNC(=O)c1ccccc1Br,"inconclusive: 5.62 µM [activator, full curve, poor fit]",–
O=C(O)C1CC=C(Cl)CC1C(=O)NCC1OCCc2ccccc21 (stereo not given),"inconclusive: 35.5 µM [activator, single point]",–
O=C1NC2(CCCCC2)C(=O)N1/N=C/c1ccccc1Br,"inconclusive: 31.6 µM [activator, single point]",–
O=C(CSc1ccc(-c2ccccn2)nn1)c1ccccc1,–,inactive: -24.4%
Cc1ccc(N2CCN(C(=O)c3ccc(Nc4nc5ccccc5n5nnnc45)cc3)CC2)c(C)c1,–,inactive: 5.86%
CCN1/C(=C\C(=S)Nc2ccccc2)Sc2ccccc21,"inconclusive: 22.4 µM [activator, single point]",–
CCN(CC(=O)NCc1ccccn1)S(=O)(=O)c1ccc(Cl)cc1,"inconclusive: 10 µM [activator, partial curve, poor fit]",–
c1ccc(C2=Nn3c(nnc3-c3n[nH]c4c3CCC4)SC2)cc1,"inconclusive: 35.5 µM [activator, single point]",–
CN1CCN(C(=O)CCC(=O)c2ccc(F)cc2)CC1,"inconclusive: 6.31 µM [activator, partial curve, poor fit]",–
CC1CCCN(C(=O)CCc2ccccc2)C1 (stereo not given),"inconclusive: 0.447 µM [activator, partial curve]",–
COC(=O)c1c(NC(=O)CCc2ccc(C)o2)sc(C)c1C,"inconclusive: 0.178 µM [activator, full curve, poor fit]",–
Br/C(=N\Nc1nn[nH]n1)c1ccncc1,–,inactive: -10.7% [at 9.22 µM]
O=C1C2C3C=CC(C4CC34)C2C(=O)N1/N=C/c1ccc([N+](=O)[O-])s1 (stereo not given),–,inactive: 15.9%
CC(=O)Nc1sc(NC(=O)c2ccc(C)cc2)nc1-c1cccs1,active: 11.2 µM,–
Cc1c(Br)c(C(=O)N2CCc3ccccc32)nn1C,"inconclusive: 7.94 µM [activator, partial curve, poor fit]",–
C1=CC2c3ccccc3NC(c3ccncc3)C2C1 (stereo not given),"inconclusive: 5.01 µM [activator, partial curve, poor fit]",–
Cc1cc(C)nc(Nc2ccc(C(=O)O)cc2)n1,active: 11.2 µM,–
COc1ccccc1NC(=O)Cc1noc(CSc2n[nH]c(N)n2)n1,–,inactive: 24.4%
C=CCN1C(=O)/C(=C\c2ccc(OC(=O)c3ccco3)c(OC)c2)SC1=S,–,inactive: -40.5%
Cc1ccc(CNC(=O)C(Cc2ccccc2)NS(=O)(=O)c2cccs2)cc1 (stereo not given),active: 17.8 µM,–
O=C(Nc1cccc(S(=O)(=O)NCc2ccco2)c1)c1cc(-c2ccc(F)cc2)nc2ccccc12,–,inactive: -50%
COc1cc(NC(=O)CN2C(=O)c3ccccc3Sc3ccc(C(=O)N4CCOCC4)cc32)cc(OC)c1OC,"inconclusive: 35.5 µM [activator, single point]",–
O=S(=O)(Nc1nc2ccccc2[nH]1)c1ccc(Cl)cc1,–,inactive: -3.04%
COc1ccc(CSc2nc3ccncc3n2CC(=O)Nc2cc(C)cc(C)c2)cc1,"inconclusive: 7.94 µM [activator, partial curve]",–
CC(C)c1nnc(NC(=O)c2cccc(NC(=O)C(F)(F)F)c2)s1,active: 14.1 µM,–
